Assay results taken from patent US20250223331A1, “GLP-1/GIP DUAL-TARGETED POLYPEPTIDE AND FUSION PROTEIN AND APPLICATIONS THEREOF” (SUNSHINE LAKE PHARMA CO., LTD., priority 2021, published 2025).
Substitutions are numbered along the chain they refer to. Marks after values point to notes of the source that are not given here.

What was measured:
GLP-1R or GIPR = assay: in vitro agonistic activity of fusion proteins, summary statement; format: cell-based; details: cAMP, GLP-1R / GIPR cells
Procedure: The digested product was electrophoresed on 1% agarose gel and the target band was cut out with a clean blade, then a gel recovery kit was used to recover the target fragment. The specific experimental operations are carried out according to the kit instructions; • 3) The target fragment enzymatic digestion recovery product and vector plasmid pcDNA3.1 fragment were connected through T4 ligase and transformed into DH5a competent cells, then single colonies were isolated by spreading on plates, and the transformants were selected and expanded for enzyme digestion verification and sequencing verification. • 4) 200 mL of the bacterial liquid obtained in inoculation step 3) and verified by sequencing to contain the fusion protein of the target product was used for plasmid extraction. The kit used was PureLink HiPure Plasmid Maxiprep Kit, and according to the instructions. After the plasmid was verified to be correct by PCR and enzyme digestion, pvuI restriction enzyme was used for linearization. Finally, the ethanol precipitation method was used to recover the plasmid. • 5) The host cells were HEK293, one day before transfection, the cells were spread into a 6-well plate at a density of 2×10^6 cells/well, and the addition volume was 1 mL/well. The recovered linearized plasmid was transfected into HEK293 cells using Lipofectamine 3000 transfection method, then G418 was added to screen to obtain mixed strains, single clones were obtained by limiting dilution and isolation, and the activity was tested and verified.
The cAMP produced by the recipient cells was detected by a cAMP detection kit (Cisbio, 62AM6PEC) according to the steps described in the operating instructions. […] If the mixture was not completely melted within 1.5 min, the cells were added dropwise to a 15 mL centrifuge tube containing 8 mL warm culture medium on a clean bench, then centrifuged at 900 rpm for 5 min, the supernatant was discarded, and the cells were re-suspended with 1 mL complete culture medium (15 times by pipetting).

DIO mice = assay: in vivo efficacy in DIO model: body weight, food intake, liver, blood biochemistry
From the text: Experimental methods: C57/BL6 mice were randomly divided into normal group NFD and model group HFD at the fifth week of age, and the normal group was fed with ordinary maintenance diet, while the model group was fed with high-fat diet D12492. Changes in body weight and food intake in mice were monitored every 3 weeks. After 16 weeks of feeding, the body weight of mice in the model group and the normal group were (47.9±3.4) g and (29.6±1.5) g, respectively, and the difference between the two groups was statistically significant. The normal group was divided into the control group, and the model group mice that were successfully modeled were divided into Vehicle group, Semaglutide group, HEC-G115 group and HEC-G124 group, with 10 mice in each group. For the groups of Semaglutide, HEC-G115 and HEC-G124, the corresponding drug was injected subcutaneously in each group, and PBS was injected subcutaneously in the Vehicle group. […] Weight and food intake were measured before each dose. After 3 weeks of administration, an intraperitoneal glucose tolerance test was performed. After 72 h of the last administration, samples were collected, liver weight was recorded, and liver pathological status and blood biochemical indexes were detected in each group.

[1] = long-term administration 10 nmol/kg s.c., 72 h after last administration
[2] = long-term administration 10 nmol/kg s.c., blood biochemistry

B1: HEC-G23: fusion protein of SEQ ID NO: 16 polypeptide, linker peptide and Fc fragment (protein)
chain: YGEGTFTSDYSIYLDKKAQRDFVEWLIAGGPSSGAPPPSGGGGSGGGGSGGGGSA[here human IgG4 Fc with S228P F234A L235A (EU numbers) without letters]
agonistic activity in vitro (GLP-1R or GIPR): strong activity in vitro

B2: HEC-G67: fusion protein of SEQ ID NO: 51 polypeptide, linker peptide and Fc fragment (protein)
chain: B1 chain with G2S, I27L
agonistic activity in vitro (GLP-1R or GIPR): strong activity in vitro

B3: HEC-G38: fusion protein of SEQ ID NO: 28 polypeptide, linker peptide and Fc fragment (protein)
chain: B1 chain with G2A, K17L, R20Q, D21A, V23I, I27L
agonistic activity in vitro (GLP-1R or GIPR): strong activity in vitro

B4: HEC-G37: fusion protein of SEQ ID NO: 27 polypeptide, linker peptide and Fc fragment (protein)
chain: B1 chain with G2A, K17L, R20Q, D21A, V23I, I27K
agonistic activity in vitro (GLP-1R or GIPR): strong activity in vitro

B5: HEC-G35: fusion protein of SEQ ID NO: 26 polypeptide, linker peptide and Fc fragment (protein)
chain: B1 chain with G2A, K17L, R20Q, D21E, V23I, E24D, I27K
agonistic activity in vitro (GLP-1R or GIPR): strong activity in vitro

B6: HEC-G48: fusion protein of SEQ ID NO: 37 polypeptide, linker peptide and Fc fragment (protein)
chain: B1 chain with G2A, K17I, R20Q, D21A, V23I, I27L
agonistic activity in vitro (GLP-1R or GIPR): strong activity in vitro

B7: HEC-G66: fusion protein of SEQ ID NO: 50 polypeptide, linker peptide and Fc fragment (protein)
chain: B1 chain with K17L, R20Q, D21A, I27L
agonistic activity in vitro (GLP-1R or GIPR): strong activity in vitro

B8: HEC-G34: fusion protein of SEQ ID NO: 25 polypeptide, linker peptide and Fc fragment (protein)
chain: B1 chain with K17Q
agonistic activity in vitro (GLP-1R or GIPR): strong activity in vitro

B9: HEC-G115: fusion protein of SEQ ID NO: 95 polypeptide, linker peptide and Fc fragment (protein)
chain: B1 chain with G2S, Y13L, K17I, D21E, V23I, I27L
agonistic activity in vitro (GLP-1R or GIPR): strong activity in vitro | effect on liver function and blood lipids (DIO mice): significantly improved the liver function and blood lipids | Cumulative food intake D 7-10 (DIO mice; 10 nmol/kg s.c. repeated, D 7-10): 13.3 g/pcs | Weight growth rate D 10 (DIO mice; 10 nmol/kg s.c. repeated, D 10): −22.2 ± 6.2% | Cumulative food intake D 11-13 (DIO mice; 10 nmol/kg s.c. repeated, D 11-13): 19.2 g/pcs | Weight growth rate D 13 (DIO mice; 10 nmol/kg s.c. repeated, D 13): −24.3 ± 8.5% | Cumulative food intake D 14-16 (DIO mice; 10 nmol/kg s.c. repeated, D 14-16): 25.7 g/pcs | Weight growth rate D 16 (DIO mice; 10 nmol/kg s.c. repeated, D 16): −24.2 ± 7.8% | Cumulative food intake D 17-19 (DIO mice; 10 nmol/kg s.c. repeated, D 17-19): 33.7 g/pcs | Weight growth rate D 19 (DIO mice; 10 nmol/kg s.c. repeated, D 19): −23.9 ± 7.7% | Cumulative food intake D 20-22 (DIO mice; 10 nmol/kg s.c. repeated, D 20-22): 42.2 g/pcs | Weight growth rate D 22 (DIO mice; 10 nmol/kg s.c. repeated, D 22): −22.4 ± 6.8% | Cumulative food intake D 23-27 (DIO mice; 10 nmol/kg s.c. repeated, D 23-27): 55.5 ^a g/pcs | Weight growth rate D 25 (DIO mice; 10 nmol/kg s.c. repeated, D 25): −20.4 ± 6.8^a % | Cumulative food intake D 0 (DIO mice; 10 nmol/kg s.c., D 0): 0.6 g/pcs | Weight growth rate D 0 (DIO mice; 10 nmol/kg s.c., D 0): 0.0 ± 0.0% | Cumulative food intake D 1 (DIO mice; 10 nmol/kg s.c., D 1): 1.5 g/pcs | Weight growth rate D 1 (DIO mice; 10 nmol/kg s.c., D 1): −5.5 ± 0.7% | Cumulative food intake D 2 (DIO mice; 10 nmol/kg s.c., D 2): 2.6 g/pcs | Weight growth rate D 2 (DIO mice; 10 nmol/kg s.c., D 2): −8.4 ± 1.0% | Cumulative food intake D 3 (DIO mice; 10 nmol/kg s.c., D 3): 3.8 g/pcs | Weight growth rate D 3 (DIO mice; 10 nmol/kg s.c., D 3): −9.7 ± 1.1% | Cumulative food intake D 4 (DIO mice; 10 nmol/kg s.c., D 4): 5.7 g/pcs | Weight growth rate D 4 (DIO mice; 10 nmol/kg s.c., D 4): −11.5 ± 1.1% | Cumulative food intake D 5 (DIO mice; 10 nmol/kg s.c., D 5): 7.4 g/pcs | Weight growth rate D 5 (DIO mice; 10 nmol/kg s.c., D 5): −12.7 ± 1.7% | Cumulative food intake D 6 (DIO mice; 10 nmol/kg s.c., D 6): 9.3 g/pcs | Weight growth rate D 6 (DIO mice; 10 nmol/kg s.c., D 6): −13.4 ± 2.0% | Weight growth rate D 7 (DIO mice; 10 nmol/kg s.c., D 7): −13.4 ± 2.6% | Liver (DIO mice; liver weight, long-term administration 10 nmol/kg s.c., 72 h after last administration): 1.0 ± 0.1 ^a g | Body weight (DIO mice; [1]): 32.4 ± 2.1^a g | Liver index (DIO mice; [1]): 3.0 ± 0.0 ^a % | ALT (DIO mice; [2]): 20.7 ± 3.1 ^a U/L | AST (DIO mice; [2]): 107.3 ± 11.9 ^a U/L | CHOL (DIO mice; [2]): 2.9 ± 0.3 ^a mmol/L | TRIGL (DIO mice; [2]): 0.8 ± 0.2 mmol/L | weight loss and feeding inhibition effects compared with Semaglutide (DIO mice; once every three days, after 4 weeks, same dose): comparable to those of the control group Semaglutide

B10: HEC-G74: fusion protein of SEQ ID NO: 58 polypeptide, linker peptide and Fc fragment (protein)
chain: B1 chain with V23I, G29Q
agonistic activity in vitro (GLP-1R or GIPR): strong activity in vitro

B11: HEC-G72: fusion protein of SEQ ID NO: 56 polypeptide, linker peptide and Fc fragment (protein)
chain: B1 chain with V23I, E24D, I27L
agonistic activity in vitro (GLP-1R or GIPR): strong activity in vitro

B12: HEC-G101: fusion protein of SEQ ID NO: 85 polypeptide, linker peptide and Fc fragment (protein)
chain: B1 chain with R20Q, V23I, E24D, I27L
agonistic activity in vitro (GLP-1R or GIPR): strong activity in vitro

B13: HEC-G99: fusion protein of SEQ ID NO: 83 polypeptide, linker peptide and Fc fragment (protein)
chain: B1 chain with Y13A, V23I, E24D, I27L
agonistic activity in vitro (GLP-1R or GIPR): strong activity in vitro
